According to article PMC4336329 (PLoS ONE, 2015):
The campaign covered roughly 310,000 compounds. About 2,200 (0.71%) showed an effect of 50% or more. The effect is printed as a negative number. The list shows a part of the results.

Each compound was assayed against human ether-à-go-go-related gene (hERG) potassium channel (human, UniProt Q12809) (assay: primary screen, population patch clamp on CHO cells stably expressing hERG).
Sequence of human ether-à-go-go-related gene (hERG) potassium channel (Q12809 whole entry, looked up): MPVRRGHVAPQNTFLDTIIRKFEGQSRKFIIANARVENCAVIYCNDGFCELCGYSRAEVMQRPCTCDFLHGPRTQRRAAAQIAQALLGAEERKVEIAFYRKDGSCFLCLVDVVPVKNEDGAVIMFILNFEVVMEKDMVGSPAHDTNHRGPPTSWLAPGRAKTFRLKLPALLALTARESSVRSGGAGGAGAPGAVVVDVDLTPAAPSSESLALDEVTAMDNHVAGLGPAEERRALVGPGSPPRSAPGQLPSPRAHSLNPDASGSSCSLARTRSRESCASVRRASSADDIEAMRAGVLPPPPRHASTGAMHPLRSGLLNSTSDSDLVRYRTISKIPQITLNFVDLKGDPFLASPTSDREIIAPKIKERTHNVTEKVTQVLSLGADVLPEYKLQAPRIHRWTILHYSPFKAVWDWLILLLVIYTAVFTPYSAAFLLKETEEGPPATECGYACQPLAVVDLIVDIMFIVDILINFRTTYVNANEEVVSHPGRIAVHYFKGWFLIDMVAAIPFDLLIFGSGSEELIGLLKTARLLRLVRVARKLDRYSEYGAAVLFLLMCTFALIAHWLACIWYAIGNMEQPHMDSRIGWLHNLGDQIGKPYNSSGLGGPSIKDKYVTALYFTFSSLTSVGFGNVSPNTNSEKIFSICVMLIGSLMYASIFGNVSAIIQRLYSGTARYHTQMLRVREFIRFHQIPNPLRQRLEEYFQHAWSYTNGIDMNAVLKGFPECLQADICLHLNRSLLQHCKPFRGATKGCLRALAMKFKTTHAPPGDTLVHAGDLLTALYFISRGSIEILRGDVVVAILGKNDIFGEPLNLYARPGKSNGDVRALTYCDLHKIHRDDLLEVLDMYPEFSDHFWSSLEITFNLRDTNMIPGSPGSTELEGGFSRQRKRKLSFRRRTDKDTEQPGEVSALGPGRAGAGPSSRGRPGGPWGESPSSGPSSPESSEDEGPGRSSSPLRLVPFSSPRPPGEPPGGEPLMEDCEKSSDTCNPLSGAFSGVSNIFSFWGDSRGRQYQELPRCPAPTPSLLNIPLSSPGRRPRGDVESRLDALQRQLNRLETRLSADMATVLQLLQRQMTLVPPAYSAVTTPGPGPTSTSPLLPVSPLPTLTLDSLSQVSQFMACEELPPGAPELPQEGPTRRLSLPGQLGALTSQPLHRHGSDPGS

Compound | hERG current change (%, negative = inhibition) at 1uM [%]
CCc1cc(=O)oc2cc(OCC(=O)N3CC[C@@]4(O)CCCC[C@H]4C3)ccc12 | 9.26
O=C(COc1ccc(F)cc1)Nc1nnc(C2CC2)s1 | 4.55
C1CCc2c(nc3nnnn3c2N2CCOCC2)C1 | 4.18
CCc1cccc(NC(=O)CCC(=O)N2CCSc3ccccc32)c1 | -3.94
O=C(NCCCn1ccnc1)C(=O)NCC1OCCN1S(=O)(=O)c1ccc(F)cc1 (stereo not shown) | 11.4
Cc1cc(Oc2cnn(C(C)(C)C)c(=O)c2Cl)cc(C(C)C)c1 | 10.7
COc1ccc(CCN2CC(C(=O)NCCc3cn[nH]c3)CCC2=O)cc1 (stereo not shown) | 2.08
Cc1cccc(OCC(=O)N/N=C/C=C/c2ccco2)c1 | 12.6
CC(C)(C)N(Cc1nc(-c2ccccc2)no1)C(=O)c1ccc2c(c1)OCO2 | 10.5
Cc1ccc(N2CCOCC2)c2c1C(=O)c1ccccc1C2=O | 3.77
CC(=O)Nc1ccc(N=Cc2c(O)c(C(=O)Nc3ccccc3)cc3ccccc23)cc1 | 11.9
CC(C)CN(C(=O)c1cccc(F)c1)c1c(N)n(CC(C)C)c(=O)[nH]c1=O | 18.5
C=CCn1c(C)cc(C(=O)CSc2nc3ccccc3[nH]2)c1C | -2.87
O=C(CCNS(=O)(=O)c1cccc2nsnc12)NC1CCN(Cc2ccccc2)CC1 | 4.44
COc1cccc(C(=O)/C=C/Nc2cccc(O)c2)c1 | 10.9
Fc1ccc(C2c3[nH]c4ccccc4c3CCN2Cc2cccn2-c2ncccn2)cc1 (stereo not shown) | 1.09
C=CCn1c(=O)c2c3c(sc2n2c(Nc4ccc(OC)cc4)nnc12)CCCC3 | 14.7
CCCCn1nnnc1SCC(=O)Nc1ccc(F)cc1 | 8.13
CC(=O)c1c(C)[nH]c(C(=O)Nc2ccccn2)c1C | 11.1
Cc1ccc2sc(NC(=O)CSc3nc(C)cc(C)c3C#N)nc2c1 | 0.196
COc1ccc(NS(=O)(=O)c2csc(C(=O)N3CCCC3)c2)c(OC)c1 | 4.64
O=C(/C=C/Nc1ccccc1)c1cnc(-c2ccccc2)s1 | 10.1

Compound | hERG current change (%, negative = inhibition) at 1uM [%]
Cc1cc(C)cc(N2C(=O)CC(n3nc(C)cc3C)C2=O)c1 (stereo not shown) | 8.37
Cc1ccc(NC(=O)c2ccc(-n3cncn3)c([N+](=O)[O-])c2)cc1F | 7.64
CCCCOc1ccc(-c2nc(/C=N/c3nccs3)c(O)o2)cc1 | 15.5
COc1ccc(S(N)(=O)=O)cc1C(=O)NCCCN1CCN(c2ccccc2OC)CC1.CS(=O)(=O)O | 4.07
Cc1ccccc1OC(C)C(=O)Nc1ccc2c(c1)OCO2 (stereo not shown) | -1.56
Cc1cccc(C2Nc3ccccc3C(=O)N2NC(=O)c2ccc([N+](=O)[O-])cc2)n1 (stereo not shown) | -3.86
O=C(CCNS(=O)(=O)c1ccccc1)OCC(=O)c1ccc(Cl)cc1 | 5.9
NC(=O)N/N=C/c1c(F)c(F)c(F)c(F)c1F | 13.2
CCN1CCN(S(=O)(=O)c2ccc(Cl)c(C(=O)N(C)Cc3ccc(Cl)cc3Cl)c2)CC1 | 6.11
Cc1sc2ncnc(NCC(C)(C)N3CCOCC3)c2c1C | -63.6
Cc1ccn(CC(=O)N2CCCC(C(=O)c3cccc4ccccc34)C2)n1 (stereo not shown) | 9.74
Cc1cc(C)cc(OCC(=O)OCC(=O)NC2CCCC2)c1 | 5.76
Cc1cc(Cl)c(S(=O)(=O)N/N=C/c2ccc3c(c2)OCO3)c(Cl)c1 | 6.02
COc1ccc(C(=O)Nc2cc3c4c(c2)C(C)C(=O)N4CCC3)cc1 (stereo not shown) | 0.815
COCCCNC(=O)c1ccc(CS(=O)(=O)Cc2cccc(C)c2)o1 | 8.08
O=C(CSc1ncn[nH]1)Nc1ncc(C(F)(F)F)cc1Cl | 14.9
O=C(Nc1ccccc1O)c1cccc(NC(=O)c2ccco2)c1 | 9.5
CC(=O)Nc1ccc(C(=O)NNC(=O)c2cccs2)cc1 | 17.3
CC(=O)N1CCC(C(=O)NC2CCCc3c2cnn3-c2cc(F)cc(F)c2)CC1 (stereo not shown) | 5.23
CSc1nnc(C(C)(C)C)c(=O)n1/N=C/c1ccc(Cl)cc1 | 2.61
O=C(c1ccco1)N1CCN(Cc2c(Cl)cccc2Cl)CC1 | 7.57
